Residue numbers refer to the chain shown, from its start. Where two headings read alike, the source gives them in different places.
B1: DOMAIN_26852 (protein, listed as Mus musculus)
chain: MNAVTYEDVHVNFTQEEWALLDPSQKKLYKDVMVETYRNLNAIGFNWEAHNIEEYCQSSRRHRRCERSQSAEKPSEYTQCG
B2: DOMAIN_26853 (protein, listed as Mus musculus)
chain: SVEMLSFRDVAIDFSAGELECLEPAQWDLYRDVMLENFSHLVFLGFSFSKPLLVRFLEKNQELRNVKRKAATVPRGKKPYK
B3: DOMAIN_27285 (protein, listed as Peromyscus maniculatus)
chain: YQEALTFQDVKVTFSQEEWGCLDSAQRNLYRDVMLENYGNVVSVVGSSPKPALISWLEARKPSTVNICKVQPKRDSGTAPE
B4: DOMAIN_27498 (protein, listed as Sus scrofa)
chain: QPQEALTFKDVEVTFSQDEWGWLDASQRNLYRDVMLENYGNIASLMGPFTKPALISWLETREPWVLNVQGAQPEGNPGADV
B5: DOMAIN_1006 (protein)
chain: DSVAFEDVAVNFTQEEWALLDPSQKNLYREVMQETLRNLTSIGKKWNNQYIEDEHQNPKRNLRRLIGERLSESKESHQHGE
modifications: Pan troglodytes
B6: DOMAIN_27521 (protein, listed as Suricata suricatta)
chain: LLTFEDVAVYFTEEEWALLDPNQKILYNDVMQENYENVICLGLKLKNDTGNDQPTSVSTLEIQASGCKVLRKARIKVAQKT
B7: DOMAIN_27563 (protein)
chain: QPQGTVTFKDVEVTFSQDEWGLLDASQRNLYRDVMLENYGNMASVVGPFTKPALISWLEAREPWGLNVQGVQFKGNPGAAP
modifications: Muntiacus muntjak
B8: DOMAIN_27581 (protein, listed as Canis lupus)
chain: LLTFEDVAVFFSEEEWKLLNPTQKILYSDVMQENYETVISLGLKLKNDTGNDQPISLSTLELQASGCKVLRKARVKVAQKT
B9: DOMAIN_27639 (protein, listed as Macaca fascicularis)
chain: QTDLVTFDSVAVEFTQEEWTLLDPTQRNLYRDVMLENYKNLSSVGYQLFKPSLISWLEEEEELSTLPRVLQEWKMCLKTKG
B10: DOMAIN_27642 (protein)
chain: B8 chain with F10S, N20D, T22A, S28N, L57V, T59A, L62I, C67R, V75M
modifications: Puma concolor
B11: DOMAIN_27690 (protein, listed as Myotis lucifugus)
chain: AAQELVTFQDVFVDFSQEELNSLSAAQRRLHREVTLENYRSLVSLGYRFPKPDIIAQLEEEESRAMEEDGDTKTGPDWETG
B12: DOMAIN_27705 (protein, listed as Phascolarctos cinereus)
chain: AQDALTFQDVAVDFTWEEWGQLDPAQQNLYRDVMLENYQNLISLGFPVSKPEVISQLEQGEVPWALKRAVAEGSCPDWEAR
B13: DOMAIN_27759 (protein, listed as Bos taurus)
chain: AEELVTFEDVAVHFSPEELPYLSASQRNLYREVMLENYRNLVSLGYQFPKPDIISQLEEEESHAREEDGSTVTCQDWEEQS
B14: DOMAIN_1079 (protein)
chain: TCMVHRQTMSCSGAGGITAFVAFRDVAVDFTQEEWRLLSPAQRTLHREVMLETYNHLVSLEIPSSKPKLIAQLEQGEEPWR
modifications: Pan troglodytes
B15: DOMAIN_27767 (protein, listed as Callithrix jacchus)
chain: SQTLVTFKDVFVDFTREEWKLLDTAQQIVYRNVMLENYKNLVSLGYQLTKPDVILRLEKGEEPWVVERGIHQETHPDSETA
B16: DOMAIN_27777 (protein, listed as Odocoileus virginianus)
chain: PQEPVTFADVAVLFTPEEWLFLDSAQKSLYRDVMLENYRNLASVGDQLCKTRMSSHMEQREELCVTERGVFPGAQLGPHLQ
B17: DOMAIN_27784 (protein)
chain: SYRSKTMAQGSLTFSDVAIGFSQQEWECLDPVQKTLYRDVMMENYGNLVSLGHSISKPNVITLLEQGKEPWIVVREETRSW
modifications: Ovis aries
B18: DOMAIN_27827 (protein)
chain: SQELLTFKDIFVDFTQEEWGQLAPAHRNLYREVMLENYGNLVSVGYQLSKPGVISQLEKGEEPWLIEREISGSPSSDLENK
modifications: Vulpes vulpes
B19: DOMAIN_27866 (protein, listed as Pongo sp.)
chain: SQEPVTFADVAVVFTPEEWVFLDSTQRSLYRDVMLENYRNLASVADQLCKPNALSYLEERGEQWTTDRGILSDTCAEPQCQ
B20: DOMAIN_27886 (protein)
chain: B16 chain with M57L, V70I, Q75H, L80F
modifications: Bison bison
B21: DOMAIN_27988 (protein, listed as Camelus dromedarius)
chain: B8 chain with V9L, F10S, S12T, K17Q, N20D, S28N, L62I, A64G
B22: DOMAIN_1137 (protein)
chain: MMQAQESLTLEDVAVDFTWEEWQLLSPAQKDLYRDVMLENYSNLVSVGYQASKPDAFSKLERGEETCTTEDEIYSRICSEI
modifications: Pan troglodytes
B23: DOMAIN_28071 (protein, listed as Enhydra lutris)
chain: B8 chain with F10S, K17R, N20D, I25S, S28N, I39V, T59A, L62I, K68R, V75M
B24: DOMAIN_28103 (protein, listed as Physeter macrocephalus)
chain: B8 chain with V9L, S12T, K17Q, N20D, T22A, S28Y, D29N, I39T, L62I, V75M
B25: DOMAIN_28164 (protein, listed as Callithrix jacchus)
chain: QLQETMTFKDVEVTFSQDEWGLLDSAQRNLYRDVMLENYRNMAFLVGPFTKPALISWLEAREPWGLNVQVAQPKRNPGAAP
B26: DOMAIN_28299 (protein, listed as Capra hircus)
chain: B7 chain with F73L
B27: DOMAIN_1153 (protein)
chain: MALTQGQLSFSDVAIEFSQEEWKCLDPGQKALYRDVMLENYRNLISLGICLPDLSVTSIFFTSGLGRARLQGGSLARVSRV
modifications: Pan troglodytes
B28: DOMAIN_28341 (protein, listed as Homo sapiens)
chain: B19 chain with I70V, S72P
B29: DOMAIN_28417 (protein)
chain: LLTFEDVAVSFSEEEWRLLDPAQKSLYNDVMQENYETIVSLGLKLKNDTGNDQPISLSALEIQASGCRVLRKARMKVAQKT
modifications: Gulo gulo
B30: DOMAIN_28513 (protein, listed as Propithecus coquereli)
chain: B25 chain with L2P, T5A, L22S, A43V, F44S, V70A, R75G
B31: DOMAIN_28619 (protein, listed as Rhinolophus ferrumequinum)
chain: MAEGLKFKDVAIYFSQNEWECLHSAQKDLYRDIMLENYNNLISLGLSESKPDVISLLEQRKEPWMVERKETKEWFPDWESR
B32: DOMAIN_28929 (protein, listed as Mus musculus)
chain: LTYDDVYVNFTQEEWALLNPSQKSLYKDVMLETYRNLIAVGYNWEDHNIEEHCQSSRRHGRNERILTGENPYEGIQCGEAFVHH
B33: DOMAIN_29164 (protein)
chain: VTFQEVAVCFTEEEWALLDPGQRALYRVVMQENYEAVTSLVAKGNKNSLCQTFCLCWGSPSSMLFCSPSLLQGLQKPQDCRGLYGGAPQCQTV
modifications: Chelonia mydas
B34: DOMAIN_29260 (protein, listed as Peromyscus maniculatus)
chain: VTYNDVHIDFTWEEWTLLDLSQKNLYKDVMLETYWNLLTIGYSWEDHNIEEHCQSSRRYERHERSQAGEKPSIYTQCIKAFEHL
B35: DOMAIN_29339 (protein, listed as Mesocricetus auratus)
chain: VTYDDVCIDFTWEEWTLLDPSQKKLYKDVMLETYRNLTAIGYNWENHHVEEYYQSSRRNARNEKSQTAEKPSVNTQCVKAFTH
B36: DOMAIN_29377 (protein, listed as Mesocricetus auratus)
chain: VSFEDVAVHFTQEEWALLDPSQKSLYRDVMLETCRNLAAIGYIWEEQTIEDDCKNFGRYQRHTISHSEYTPYEHEECGNMPCDP
B37: DOMAIN_29426 (protein, listed as Mus caroli)
chain: VTYEDVHVNFSHEEWALLDSSQKSLYRDVMLETCRNLMAIGYRLEDHNIEEHCQSSRRPGRYNICNCGYKPCENEDHGKKQCTF

System: HBEGF locus
Assay type: cell-based, human
[1] = fold change in abundance of each repressor domain in the dXR library before vs after diphtheria toxin selection, dXR repression of the HBEGF gene, domains meeting p-value <0.01 and log2(fold change) >2
[2] = high-throughput screen of dXR repression of the HBEGF gene, change in abundance of each domain in the library before and after diphtheria toxin selection

Molecule	Log2 (fold change) [1]	Log2 (fold change) [2]
B1	2.8783	–
B2	3.6235	–
B3	3.092	–
B4	2.9278	–
B5	–	3.2119
B6	2.7447	–
B7	3.6292	–
B8	2.4582	–
B9	2.452	–
B10	2.8615	–
B11	3.1465	–
B12	2.5921	–
B13	2.2124	–
B14	–	3.7915
B15	2.2153	–
B16	2.6766	–
B17	2.1631	–
B18	3.1318	–
B19	2.9226	–

Molecule	Log2 (fold change) [1]	Log2 (fold change) [2]
B20	2.735	–
B21	2.5381	–
B22	–	3.1719
B23	3.2938	–
B24	2.4116	–
B25	2.7356	–
B26	3.5584	–
B27	–	3.7928
B28	2.7008	–
B29	2.5366	–
B30	2.3747	–
B31	2.6504	–
B32	3.1025	–
B33	2.1345	–
B34	2.5127	–
B35	2.9581	–
B36	2.672	–
B37	2.0491	–

— patent US12551573B2, “Compositions and methods for the targeting of PCSK9” (Scribe Therapeutics Inc., priority 2022, dated 2026)
